# Measured values reported in article PMC6015050.
# Protein sequences, listed by entry. Tags and fused reporters are not part of them. Residues count along the entry.
# UniProt P12154: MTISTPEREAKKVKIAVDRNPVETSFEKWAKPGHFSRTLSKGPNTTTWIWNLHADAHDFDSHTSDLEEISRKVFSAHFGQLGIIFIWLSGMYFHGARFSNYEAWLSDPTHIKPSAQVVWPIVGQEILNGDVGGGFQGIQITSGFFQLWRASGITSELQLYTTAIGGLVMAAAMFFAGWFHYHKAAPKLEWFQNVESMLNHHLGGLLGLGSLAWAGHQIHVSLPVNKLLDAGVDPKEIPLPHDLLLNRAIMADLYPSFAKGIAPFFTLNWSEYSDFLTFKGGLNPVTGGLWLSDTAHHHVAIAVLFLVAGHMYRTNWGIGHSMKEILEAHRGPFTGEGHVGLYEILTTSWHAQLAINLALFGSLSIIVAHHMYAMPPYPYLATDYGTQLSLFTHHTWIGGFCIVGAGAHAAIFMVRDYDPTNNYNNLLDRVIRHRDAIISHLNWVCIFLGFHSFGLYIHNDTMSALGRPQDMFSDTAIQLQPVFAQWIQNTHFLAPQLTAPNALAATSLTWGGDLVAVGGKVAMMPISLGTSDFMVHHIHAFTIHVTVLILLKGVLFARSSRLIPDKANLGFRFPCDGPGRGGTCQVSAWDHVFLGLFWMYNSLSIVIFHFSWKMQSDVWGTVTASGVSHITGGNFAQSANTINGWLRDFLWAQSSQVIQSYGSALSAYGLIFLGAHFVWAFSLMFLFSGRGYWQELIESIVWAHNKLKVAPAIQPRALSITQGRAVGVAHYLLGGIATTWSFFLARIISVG
# UniProt P12352, residues 25-97: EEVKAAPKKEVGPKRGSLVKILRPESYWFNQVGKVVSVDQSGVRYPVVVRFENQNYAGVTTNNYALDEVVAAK
# UniProt P09144: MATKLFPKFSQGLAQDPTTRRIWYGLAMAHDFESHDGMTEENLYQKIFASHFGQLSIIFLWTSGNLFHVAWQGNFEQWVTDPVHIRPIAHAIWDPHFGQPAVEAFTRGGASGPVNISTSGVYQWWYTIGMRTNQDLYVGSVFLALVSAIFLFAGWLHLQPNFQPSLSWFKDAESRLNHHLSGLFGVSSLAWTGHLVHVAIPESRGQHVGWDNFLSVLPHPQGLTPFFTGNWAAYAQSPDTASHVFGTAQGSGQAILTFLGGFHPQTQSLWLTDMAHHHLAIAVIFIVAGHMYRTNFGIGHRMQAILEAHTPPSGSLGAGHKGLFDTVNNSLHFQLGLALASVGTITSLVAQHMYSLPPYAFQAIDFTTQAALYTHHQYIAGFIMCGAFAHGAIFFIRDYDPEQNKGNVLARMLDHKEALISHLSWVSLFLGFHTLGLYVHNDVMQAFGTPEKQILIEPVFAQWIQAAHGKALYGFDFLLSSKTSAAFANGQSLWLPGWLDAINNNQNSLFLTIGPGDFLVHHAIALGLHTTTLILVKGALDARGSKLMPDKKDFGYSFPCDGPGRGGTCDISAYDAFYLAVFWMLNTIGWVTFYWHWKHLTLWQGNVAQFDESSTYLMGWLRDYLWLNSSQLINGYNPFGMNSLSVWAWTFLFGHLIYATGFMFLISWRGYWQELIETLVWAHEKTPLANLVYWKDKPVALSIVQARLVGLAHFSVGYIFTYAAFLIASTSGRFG
# Results are given in words; binding and its absence hold for the method and conditions named. Binding seen in cells or lysates may run through a third protein. Some binding calls cover weakened binding; strength is not graded here. For some assays here: Where a sequence is shown, tags or fusion partners need not be part of it.
# T1: Ycf4 fused with HA tag at the N-terminus (HA-Ycf4) (C. reinhardtii) (UniProt O20030)
# T1 sequence: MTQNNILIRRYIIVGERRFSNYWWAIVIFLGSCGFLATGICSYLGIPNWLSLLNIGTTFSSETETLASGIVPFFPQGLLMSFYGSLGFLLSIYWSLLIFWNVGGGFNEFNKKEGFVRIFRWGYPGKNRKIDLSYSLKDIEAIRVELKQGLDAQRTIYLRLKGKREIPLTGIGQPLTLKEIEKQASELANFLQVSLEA
# T2: Ycf3 fused with HA-tag at the C-terminus (Ycf3-HA) (C. reinhardtii) (UniProt O20031)
# T2 sequence: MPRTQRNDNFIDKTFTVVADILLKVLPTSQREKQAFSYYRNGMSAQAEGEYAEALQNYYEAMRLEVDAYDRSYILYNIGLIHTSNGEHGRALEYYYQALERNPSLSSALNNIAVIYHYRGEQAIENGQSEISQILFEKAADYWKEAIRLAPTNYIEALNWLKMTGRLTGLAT
# B1: endogenous Ycf4 (protein, UniProt O20030 1-197)
# chain: T1 sequence
# B2: endogenous Ycf3 (protein, UniProt O20031 1-172)
# chain: T2 sequence
# B3: PsaC (protein, UniProt Q00914 1-81)
# chain: MAHIVKIYDTCIGCTQCVRACPLDVLEMVPWDGCKASQMASAPRTEDCVGCKRCETACPTDFLSVRVYLGSESTRSMGLSY
# B4: PSAD (protein, UniProt Q39615 36-196)
# chain: EAEAAPAAAKKAAEKPAWTVPTLNPDTPSPIFGGSTGGLLRKAQTEEFYVITWEAKKEQIFEMPTGGAAIMRQGPNLLKFGKKEQCLALTTQLRNKFKLTPCFYRVFPDGKVQYLHPADGVYPEKVNAGRVGANQNMRRIGQNVNPIKVKFSGRMMSPAEI
# B5: PSAF (protein, UniProt P12356 63-227)
# chain: DIAGLTPCSESKAYAKLEKKELKTLEKRLKQYEADSAPAVALKATMERTKARFANYAKAGLLCGNDGLPHLIADPGLALKYGHAGEVFIPTFGFLYVAGYIGYVGRQYLIAVKGEAKPTDKEIIIDVPLATKLAWQGAGWPLAAVQELQRGTLLEKEENITVSPR
# B6: PSAH (protein, UniProt P13352 31-130)
# chain: KYGENSRYFDLQDMENTTGSWDMYGVDEKKRYPDNQAKFFTQATDIISRRESLRALVALSGIAAIVTYGLKGAKDADLPITKGPQTTGENGKGGSVRSRL
# B7: Ycf4 fused with HA tag at the N-terminus (HA-Ycf4) (protein, UniProt O20030 1-197)
# chain: T1 sequence
# B8: PSAG (protein, UniProt P14224 31-126)
# chain: ALDPQIVISGSTAAFLAIGRFVFLGYQRREANFDSTVGPKTTGATYFDDLQKNSTIFATNDPAGFNIIDVAGWGALGHAVGFAVLAINSLQGANLS
# B9: PSAK (protein, UniProt P14225 27-113)
# chain: DGFIGSSTNLIMVASTTATLAAARFGLAPTVKKNTTAGLKLVDSKNSAGVISNDPAGFTIVDVLAMGAAGHGLGVGIVLGLKGIGAL
# Experiments:
# [1] = biological target: T1, Ycf4 fused with HA tag at the N-terminus (HA-Ycf4) (C. reinhardtii); experiment: co-IP; HA-Ycf4 from thylakoid extracts (1% β-DM) of the HA-ycf4 mutant on anti-HA beads, 1 h, eluted with HA peptide; stained gel and immunoblot; also from cells pulse-labelled with 35S (10 min) and chased 6 h, autoradiography; WT extract as negative control
# [2] = biological target: T1, Ycf4 fused with HA tag at the N-terminus (HA-Ycf4) (C. reinhardtii); experiment: co-IP; affinity-purified HA-Ycf4 preparation (anti-HA beads, β-DM), concentrated and fractionated by sucrose density gradient ultracentrifugation; fractions Y1, Y2, Y3 analysed by stained gel and immunoblot
# [3] = biological target: T2, Ycf3 fused with HA-tag at the C-terminus (Ycf3-HA) (C. reinhardtii); experiment: co-IP; Ycf3-HA from thylakoid extracts (1% α-DM) of the ycf3-HA mutant on anti-HA beads in a spin column, 1 h, eluted with HA peptide; stained gel and immunoblot; also from cells pulse-labelled with 35S (10 min) and chased 6 h, autoradiography; WT extract as negative control
# [4] = biological target: PsaA (C. reinhardtii (endogenous in C. reinhardtii)) (UniProt P12154); experiment: co-sedimentation; affinity-purified Ycf3-HA preparation, concentrated, sucrose density gradient (0.1-1.3 M sucrose, 5 mM Tricine-NaOH pH 8.0, 0.05% DM), 202,000 x g, 16 h; fractions immunoblotted
# [5] = biological target: T1, Ycf4 fused with HA tag at the N-terminus (HA-Ycf4) (C. reinhardtii); experiment: co-sedimentation; affinity-purified HA-Ycf4 preparation on a sucrose density gradient (0.1-1.3 M sucrose, 5 mM Tricine-NaOH pH 8.0, 0.05% DM), 202,000 x g, 16 h; HA-Ycf4 followed by immunoblot
Molecule,binding [1],binding [2],binding [3],binding [4],binding [5]
PSAE (from UniProt P12352 25-97),binds,binds,,,
PsaB (from UniProt P09144 1-735),binds,binds,binds,,
PsaA (from UniProt P12154 1-751),binds,binds,binds,,
B1,binds,,binds,binds,
B2,binds,,binds,,
B3,binds,binds,no binding,,
B4,binds,binds,no binding,,
B5,binds,binds,binds,,
B6,binds,,,,
B7,,,,,binds
B8,,no binding,,,
B9,,no binding,,,
